Test results taken from the supplement of paper PMC3334620.
Whole data set: some 33,000 sequences, median “E-score (-0.5 to 0.5)” near -0.053, cut for the highest 2% near 0.37. Some of the results follow.

Biological target: Hap1 (UniProt P0CE41)
Experiment: PBM E-score (8-mer binding enrichment) (E-score (-0.5 to 0.5)); higher = stronger / more preferred TF binding; most listed sequences are background and not binding sites
Settings: protein concentration: 200 nM; construct: GST-DNA-binding domain
Procedure: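 Universal 'all 10-mer' protein binding microarrays (Agilent AMADID 015681) probed with GST-tagged S. cerevisiae TFs (full-length or DBD) made by in vitro transcription/translation (PURExpress), about 100-200 nM. Bound TF was detected with fluorescent anti-GST. Each ungapped 8-mer (which stands for itself and its reverse complement) is scored by the PBM enrichment score (E-score), a modified Wilcoxon-Mann-Whitney statistic from -0.5 to +0.5, computed with the Universal PBM Analysis Suite. Scale: above 0.35 generally sequence-specific binding.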

Sequence of UniProt P0CE41 (P0CE41 whole entry): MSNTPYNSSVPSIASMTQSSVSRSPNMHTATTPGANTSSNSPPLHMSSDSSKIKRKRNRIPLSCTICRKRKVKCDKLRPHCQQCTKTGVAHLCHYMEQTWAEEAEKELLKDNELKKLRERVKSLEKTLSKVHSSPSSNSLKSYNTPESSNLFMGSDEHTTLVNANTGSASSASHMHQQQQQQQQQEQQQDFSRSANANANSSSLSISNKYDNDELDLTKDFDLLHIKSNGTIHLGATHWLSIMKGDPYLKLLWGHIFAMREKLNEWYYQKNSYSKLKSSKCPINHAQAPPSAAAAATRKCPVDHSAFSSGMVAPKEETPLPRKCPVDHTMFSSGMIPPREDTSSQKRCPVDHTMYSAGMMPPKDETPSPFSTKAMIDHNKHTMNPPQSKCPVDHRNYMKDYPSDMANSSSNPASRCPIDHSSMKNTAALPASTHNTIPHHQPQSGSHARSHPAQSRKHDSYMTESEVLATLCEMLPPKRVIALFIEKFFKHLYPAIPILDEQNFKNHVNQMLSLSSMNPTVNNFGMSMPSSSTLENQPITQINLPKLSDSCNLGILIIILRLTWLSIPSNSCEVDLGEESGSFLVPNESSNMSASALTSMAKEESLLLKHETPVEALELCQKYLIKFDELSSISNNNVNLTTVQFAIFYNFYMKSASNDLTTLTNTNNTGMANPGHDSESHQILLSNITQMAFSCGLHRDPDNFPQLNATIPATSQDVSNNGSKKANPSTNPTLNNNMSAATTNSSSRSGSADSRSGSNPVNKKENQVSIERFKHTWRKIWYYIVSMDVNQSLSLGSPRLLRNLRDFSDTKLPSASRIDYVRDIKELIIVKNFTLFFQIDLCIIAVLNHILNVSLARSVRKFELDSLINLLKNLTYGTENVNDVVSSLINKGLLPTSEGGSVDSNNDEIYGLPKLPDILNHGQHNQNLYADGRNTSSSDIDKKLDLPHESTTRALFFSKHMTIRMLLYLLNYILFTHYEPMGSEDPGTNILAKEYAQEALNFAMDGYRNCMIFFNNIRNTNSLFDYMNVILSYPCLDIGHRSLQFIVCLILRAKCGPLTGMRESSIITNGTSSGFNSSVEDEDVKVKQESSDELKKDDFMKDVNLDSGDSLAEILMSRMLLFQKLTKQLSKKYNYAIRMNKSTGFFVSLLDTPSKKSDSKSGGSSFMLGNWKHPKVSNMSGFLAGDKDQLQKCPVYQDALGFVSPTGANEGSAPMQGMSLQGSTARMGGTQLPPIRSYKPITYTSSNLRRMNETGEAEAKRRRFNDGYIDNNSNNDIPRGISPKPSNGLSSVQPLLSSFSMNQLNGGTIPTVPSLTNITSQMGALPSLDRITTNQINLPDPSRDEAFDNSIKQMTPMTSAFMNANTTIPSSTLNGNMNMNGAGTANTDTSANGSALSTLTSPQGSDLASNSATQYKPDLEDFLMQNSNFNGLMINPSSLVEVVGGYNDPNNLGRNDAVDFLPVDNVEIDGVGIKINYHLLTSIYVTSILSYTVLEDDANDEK

Point of comparison: AGGGCGTC, “PBM E-score” value 0.129. Against it:
- ACTGGGGA — lower, -0.016
- AGTCTTGA — lower, -0.261
- AAGAAGCG — lower, -0.149
- CGATTCAC — lower, 0.113
- AGGACACG — lower, 0.0655
- AATTATCA — lower, -0.101
- AAAGAACC — lower, 0.106
- GCAGCGTA — lower, -0.0937
- AAAGGCCT — lower, -0.305
- AACTTTCA — lower, -0.106
- CTGACCGA — higher, 0.258
- GCTCTCCA — lower, -0.177
- CTAGTTCA — lower, -0.0651
- AGGGATAG — lower, -0.116
- AGATCGGC — higher, 0.267
- AGTCACAC — lower, -0.233
- TACTGATA — lower, 0.0105
- AGATGTAG — lower, -0.064
- CTTTTTGC — lower, -0.0126
- ATTTAGAC — lower, -0.0358
- GCGCGTAA — higher, 0.155
- TAGATAGA — lower, -0.111
- TCATTCGA — lower, -0.161
- CCAACGCC — lower, 0.0877
- ATTGCAAC — lower, 0.0746
- AAACCGGG — higher, 0.234
- CAAGCTGG — lower, -0.242
- GCTGCTGA — lower, -0.113
- AGGTGCGA — lower, -0.0418
- AGAAAGAA — lower, -0.0768
- AACCCCAG — lower, -0.0536
- AACTGCGA — higher, 0.185
- ATTTTTCC — lower, 0.124
- CTGGAAGA — lower, -0.0745
- AACCCCCG — higher, 0.262
- ATGCGAGA — lower, -0.168
- ACGACGCC — lower, -0.0839
- CCGCTGCC — lower, -0.0154
- CAAATACC — lower, 0.103
- CAGTCCGC — lower, 0.0912
- CACCGTGG — lower, -0.121
- AGCTAAAG — lower, -0.12
- GGCTGCGA — lower, -0.128
- CATCAAAG — lower, -0.2
- AAACCTTA — lower, 0.0158
- AAACTATA — lower, -0.0142
- ACTACGTG — lower, -0.161
- CAGATCAC — lower, -0.191
- CGTACGAC — lower, -0.0847
- GGAGTCGA — lower, -0.0486
- CGTAATTA — lower, 0.0116
- CGATGGAG — higher, 0.185
- AGGCAAGG — lower, -0.298
- CGGCAGGC — lower, -0.012
- ACATATAC — lower, -0.123
- ACTGGGAT — lower, -0.0267
- ATGGACGG — higher, 0.19
- CGGCGGGC — higher, 0.254
- GGTAGTTA — lower, 0.0824
- ACGCTGGG — lower, -0.131
- GTGATTCA — lower, -0.322
- ATGGTGGC — lower, -0.219
- GGAACGGA — higher, 0.303
- AAAAGTGA — lower, -0.076
- ATATTTAC — lower, 0.125
- GAGTCATA — lower, -0.0413
- GCACGCAA — lower, -0.0136
- CGCCTAGC — lower, -0.132
- CGCCTACA — lower, -0.222
- AGTAACAA — lower, -0.129
- CTACAGAG — lower, -0.223
- GGAATATA — higher, 0.226
- AGATGAGC — lower, -0.182
- TATGTAGA — lower, -0.166
- CACGAGGA — lower, -0.0134
- CCGAGCTA — higher, 0.31
- CATGCAAG — lower, -0.0911
- GAGATCTC — higher, 0.156
- ATCCTGTA — lower, -0.19
- GGCATTAC — higher, 0.268
- TAGAGACA — lower, -0.246
- AGCAAATG — lower, -0.233
- ATCGTGAG — lower, -0.00799
- CGCGTCAA — lower, -0.0722
- ATACTAAA — lower, -0.00575
- CGAATCTC — higher, 0.234
- AGCCAAAC — lower, 0.0592
- CTGCGTCC — lower, -0.104
- CAATCGGG — higher, 0.205
- GGCTTTAA — higher, 0.314
- TAGGGGAA — lower, -0.295
- ACAGTCCC — lower, 0.00129
- CCGAATCA — higher, 0.229
- GCATGCAC — lower, -0.222
- GCCATTAA — lower, -0.00272
- GCGTTATA — lower, 0.0076
- GACTCCCA — lower, -0.0794
- TACGTGCA — lower, -0.113
- CACATCAA — lower, -0.0134
- GGGTCGTA — lower, 0.0749
- GACACGAA — lower, -0.0202
- GAATCAAC — lower, 0.0943
- AGCTCTAG — lower, -0.0648
- CATGGGTC — lower, -0.168
- CCTTGAAG — lower, -0.173
- ACCCCATA — lower, 0.0968
- AGAAGGAT — lower, -0.263
- AGGTTAGA — lower, -0.0741
- AGTTCACA — lower, -0.0871
- TCAATCAA — lower, 0.0139
- CGTGCCTA — lower, -0.163
- CTCAGGCC — lower, -0.0471
- ATCCCCCC — lower, -0.00218
- ACCGCAAC — higher, 0.259
- CGTATATC — lower, 0.0289
- CGCCAGGC — lower, 0.0936
- CTTTTCCA — lower, -0.118
- AGTACTCG — lower, 0.0239
- ACTCCGCT — higher, 0.21
- AAGTGAAG — lower, -0.125
- AAACGGCT — lower, -0.00631
- ATGGAGTG — lower, -0.186
- ACTATCAT — lower, 0.0979
- AAAACACC — higher, 0.155
- ACGACAAA — lower, 0.0147
- CTTCAGCC — lower, -0.174
- ACGTAGCG — lower, 0.0111
- TACCACAA — lower, -0.0071
- AGCAGGCA — lower, -0.173
- AGTCGATC — lower, 0.0221
- TCCTAACA — lower, -0.286
- AATTGGTA — lower, 0.0798
- CCATTAGC — lower, -0.105
- CGATTCAG — lower, -0.0955
- GCTGTCTA — lower, -0.114
- CAAGGTCG — lower, -0.159
- AAGAGTCT — lower, -0.303
- CGAGTTAA — higher, 0.172
- CACTGAAG — lower, 0.0169
- CGGGCCTC — higher, 0.192
- ATGGGCCC — lower, 0.0947
- CAACGGAC — higher, 0.345
- CTTCGTGC — lower, -0.172
- TCCCGACA — lower, 0.127
- AGACTTCA — lower, -0.262
- AATAAGAA — lower, 0.0502
- AAAGAATA — lower, -0.138
- GTCCTCTA — lower, -0.278
- TAGCCTCA — lower, -0.109
- CTCAATCC — lower, -0.0245
- GGCGACTA — lower, -0.0531
- ACGCCAGC — lower, -0.112
- ATTTTACA — lower, -0.19
- CTCCCCTA — higher, 0.146
- CGCTTGCA — lower, -0.0441
- CGCCGCAG — higher, 0.22
- CCCGTAAA — higher, 0.206
- AGGCTCCA — lower, -0.148
- CATATTAG — lower, -0.0685
- GACCGGTC — higher, 0.325
- GTATGTAA — lower, -0.0486
- GACCTTCC — lower, 0.078
- CACAATTA — lower, -0.182
- ACACGGAC — higher, 0.279
- ATTCCTGG — lower, -0.077
- GCGGCCAA — lower, 0.0252
- ATTACTAG — lower, -0.0203
- GAAGGGGA — lower, -0.119
- ACATGGGA — lower, 0.0443
- GGCTTGTA — lower, -0.157
- GTAATCAC — lower, 0.0661
